Source: PubChem BioAssay AID1030 (National Center for Advancing Translational Sciences (NCATS), 2008)
In all, about 220,000 compounds went through this assay and about 16,000 (7.3%) were called active. Inconclusive means that the source gave no clear call. Such entries were picked first, then a sample of the others. The call rests on the fitted dose curve; in most records, active means well fitted inhibition curve with a large enough effect (not every such curve was filed as active); inconclusive means small, poorly fitted or top-dose-only effect, or another doubt; inactive means no such curve, though single readings can be large or run the other way. Potencies of inconclusive entries are left out as doubtful fits.

These molecules were tested against Aldehyde dehydrogenase 1A1 (Homo sapiens) (UniProt P00352) (assay: qHTS Assay for Inhibitors of Aldehyde Dehydrogenase 1 (ALDH1A1)). Settings: Purified ALDH1A1, NADH fluorescence, propionaldehyde substrate; series mostly up to 75.3 µM.
Sequence of UniProt P00352 (P00352 whole entry, looked up): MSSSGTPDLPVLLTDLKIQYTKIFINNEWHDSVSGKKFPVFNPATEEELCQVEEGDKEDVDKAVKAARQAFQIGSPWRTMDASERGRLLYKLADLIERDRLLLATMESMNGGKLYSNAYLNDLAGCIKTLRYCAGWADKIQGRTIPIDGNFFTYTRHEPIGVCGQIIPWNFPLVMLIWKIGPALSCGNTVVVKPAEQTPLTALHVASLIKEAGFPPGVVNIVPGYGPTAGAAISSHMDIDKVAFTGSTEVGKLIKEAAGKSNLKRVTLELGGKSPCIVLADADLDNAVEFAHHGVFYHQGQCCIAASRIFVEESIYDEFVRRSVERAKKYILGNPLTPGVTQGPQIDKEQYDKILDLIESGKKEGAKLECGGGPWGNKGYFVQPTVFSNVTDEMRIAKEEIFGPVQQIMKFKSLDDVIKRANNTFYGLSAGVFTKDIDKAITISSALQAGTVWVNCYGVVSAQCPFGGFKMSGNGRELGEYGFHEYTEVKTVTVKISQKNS
Potency means the concentration at half of the fitted maximal effect; tags describe the fitted curve by direction and shape.

Structure (SMILES) | Potency
COc1cc(C2NC(=O)NC(C)=C2C(C)=O)ccc1O (stereo not given) | inactive
CCCC(O)(c1ccc(Cl)cc1)C(CN1CCOCC1)c1ccccc1 (stereo not given) | inactive
CC(C)c1ccc(C(=O)NN2C(=O)C3CCCCC3C2=O)cc1 (stereo not given) | inactive
Cc1cc(NC(=O)CSc2nnc(-c3ccncc3)n2N)ccc1Br | inconclusive [inhibitor, single point]
CC(=O)c1c(C)oc(C)c1CSCc1ccc(C(=O)O)o1 | inconclusive [inhibitor, single point]
COc1cc(CNCCc2ccccc2)cc(Br)c1OCC(=O)Nc1ccccc1C | inactive
COc1ccc(NC(=O)N(Cc2cccs2)Cc2cc3cc4c(cc3[nH]c2=O)OCO4)cc1 | inconclusive [inhibitor, partial curve]
CCCN1CCCc2cc(CN)ccc21 | inconclusive [inhibitor, partial curve]
C=C1c2ccccc2O[C@H](C(=O)OCC)[C@@H]1CCC(C)C (tested in a mixture with another compound) | active: 31.6 µM
CCc1ccc(C2=NN(c3ccc(S(N)(=O)=O)cc3)C(c3ccc(F)cc3)C2)cc1 (stereo not given) | inconclusive [inhibitor, partial curve]
O=C(Nc1ccc(N2CCCC2)c(Cl)c1)c1ccc([N+](=O)[O-])cc1 | inactive
Cc1ccc2c(c1)NC(=O)C(CC(=O)NCc1cccnc1)O2 (stereo not given) | inactive
O=C(c1ccc2c(c1)OCO2)N1CCN(c2ccc(C(F)(F)F)cn2)CC1 | inconclusive [inhibitor, partial curve]
Cn1cccc1/C=N/NC(=O)c1sc2ccccc2c1Cl | inconclusive [inhibitor, partial curve]
CC(=O)Nc1cccc(NC(=S)Nc2cccc(Cl)c2Cl)c1 | inconclusive [inhibitor, single point]
Cn1c(Cc2csc(N)n2)nnc1SC/C=C/c1ccccc1 | inconclusive [inhibitor, single point]
CCOC(=O)CSc1nc(C(C)(C)C)nc2ccccc12 | inconclusive [inhibitor, partial curve]
c1ccc(-c2ccc(-c3cn4c(n3)CCC4)cc2)cc1 | inconclusive [inhibitor, partial curve]
COc1ccc(N=C2SCC(c3ccc(C)cc3)=NN2CCO)cc1 | inconclusive [inhibitor, single point]
O=C(CN1C(=O)C(c2ccc(F)cc2)=NC12CCCC2)Nc1ccc(F)cc1 | inconclusive [inhibitor, single point]
